Laboratory results taken from PubChem BioAssay AID588334 (Broad Institute, 2011).
Where “and” joins values, the source holds several entries; their conditions need not be identical. Equal values may be shown once. In all, about 300,000 compounds went through this assay and about 2,300 (0.77%) were called active. The shares of active, inactive and inconclusive entries below differ from those in the screen.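 The calls were made as follows: active = mean activation of at least 80% with every replicate also reaching 80%; inconclusive = mean reaches 80% but some replicate falls short; inactive = the rest.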

Assay: MITF-driven TRPM1 luciferase induction in melanoma cells – cell-based, SK-MEL-5, single point, primary screen (AID 588334);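 also: 0% = neutral control wells and 100% = parthenolide positive control wells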
Details: SK-MEL-5 TRPM1-promoter luciferase, 24 h; at 12.5 µM; hits give high values; % of positive control, neutral wells = 0

activation, inconclusive:
Fc1ccc2nc(Nc3ccccc3)sc2c1 88.5%
COc1cccc(Nc2ncnc3ccccc23)c1 82.6%
O=C(c1ccc(-c2ccccc2Cl)o1)N1CCC1 85.8%
O=C(Nc1ccccc1)Nc1ccc2nnsc2c1 81.6%
COc1cc(/C=N/n2c(C)n[nH]c2=S)ccc1OCc1ccc(F)cc1 86.2%
O=S(=O)(Cc1noc(-c2ccccc2Cl)n1)c1ccccn1 81.6%
COc1cccc2c(=O)c3ccccc3oc12 83.3%
COc1ccc(-c2noc(-c3cccc(Cl)c3)n2)cc1OC 86.7%
C=CCNC(=O)C1CC(=O)N(c2ccc(OCC(=O)Nc3ccccc3)cc2)C1 (stereo unspecified) 90.4%
Cc1nn(-c2ccccc2)c(Cl)c1/C=N/NC(=O)c1[nH]ncc1Br 98.9%
CC(C)C(=O)Nc1ccc2nn(-c3ccccc3)nc2c1 81.6%
O=C(Nc1ccc2oc(-c3ccccc3)nc2c1)c1ccco1 84%
CCCn1c(C)cc(/C=C(\C#N)C(=O)OCC(=O)Nc2cc(OC)c(OC)c(OC)c2)c1C 80.9%
C/C(=C\c1ccc(N)cc1)c1nc2ccccc2[nH]1 82.6%
CCCCc1nc2cc(C(=O)N3CCN(c4nc(C)cnc4C)CC3)ccc2o1 84.5%
N/C(=N\OC(=O)COc1ccc2ccccc2c1Br)c1ccccn1 81.4%
COc1cccc(N(C(=O)c2nc3nccc(C)n3n2)c2nc3ccccc3s2)c1 84.7%
CCOC(=O)COc1ccccc1C1Nc2ccccc2C(=O)N1c1cccc(Cl)c1 (stereo unspecified) 80.4%
Fc1cccc(-n2cc(-c3ccccc3)c3c(=S)nc[nH]c32)c1 385%
CC1CCN(C(=O)c2cc(-c3ccc4c(c3)OCO4)on2)CC1 87.8%
Cc1cccc(-n2ncc3c(NCc4cccs4)ncnc32)c1 80.7%
O=[N+]([O-])c1ccc(Cc2nnc(-c3ccc(F)cc3)o2)cc1 85%
Cc1cccnc1NC(=O)Nc1ccccc1 80.6%
COc1cccc(NC(=O)Nc2nc(SC)ns2)c1 93.4%
CSCc1ccc(C(=O)Nc2cc(C)cc(C)c2)cc1 80.4%
COc1ccc(NC(=O)Nc2ncccc2C)cc1 82.5%
CC(C)[C@H](NC(=O)OCc1ccccc1)C(=O)OCC(=O)c1ccccc1 82.6%
Cc1ccnc(NC(=O)CCNC(=O)c2ccc(Cl)cc2)c1 82.5%
COCCCNC(=O)C1CCN(C(=O)c2oc3cc4sc(N(C)C)nc4cc3c2C)CC1 80.9%
O=C(Nc1ccc(Br)cc1)NC1CCCCCCC1 89%
c1ccc(-c2cnnc(-c3ccccn3)n2)cc1 81.3%
O=C(Nc1cccnc1)c1cc2cc(Br)ccc2o1 80.8%
CCC(=O)N/C(N)=N/c1nc2ccccc2o1 91.6%

activation, inactive:
Cc1c(N=C2Nc3cccc4cccc2c34)c(=O)n(-c2ccccc2)n1C 4.25% and 10.8%
O=C1N[C@@H](Cc2ccccc2)COC(=O)[C@H](Cc2ccc(F)cc2)C/C=C\C[C@H]1CC(=O)N(CCO)Cc1ccccc1 -1.17%
Cc1ccc(NC(=O)CNC(=O)COc2ccccc2)nc1 -3.04%
C/C(=N\NC(=O)CSc1nc2ccccc2o1)c1ccc(O)cc1 8.62%
N#CC(C#N)=CC1=C2OC(c3ccccc3)=CC(c3ccccc3)=C2CCC1 -22.2%
CCN1/C(=C2/SC(=S)NC2=O)Sc2ccccc21 3.25%
COc1ccc(/C(C)=N/NC(=O)c2ccccc2OCc2ccccc2)c(OC)c1 45.1%
CCn1cc(C(=O)N2CCN(c3ccccn3)CC2)c2cc(OC)c(OC)cc2c1=O 1.78%
Cc1c(Cl)c(C(F)(F)F)nn1CC(=O)NCc1ccco1 -11.4%
Cc1ccsc1/C=N/Nc1nc2ccccc2[nH]1 48.4%
O=C1OC2(CCCCC2)OC(=O)C1=CNc1ccc2c(c1)OCO2 35.2%
O=C(CN(Cc1ccccc1)C(=O)c1cc2c(s1)CCC2)NCc1cccs1 5.89%
CCN(c1ccccc1)S(=O)(=O)c1cccc(C(=O)OCC(=O)Nc2ccc(NC(C)=O)cc2)c1 -1.81%
Cc1c(/C=N\NC(=O)c2cccc(F)c2)cnn1C 9.34%
Cc1ccc2c(c1)c1c3n2CCN(CC#N)C3CCC1 (stereo unspecified) 7.71%
CCCCN(C(=O)c1cnccn1)c1c(N)n(CCC)c(=O)[nH]c1=O 11.1%
CCCCCCn1c2c(c(=N)c3c1CCC3)CCC2 -63.5%

activation, active:
O=S(=O)(Cc1cc(-c2ccccc2Cl)no1)c1ccccc1 89.9%
CC(=O)Nc1ccc(NC(=O)/C(Cl)=C/c2ccccc2)cc1 111%
Cc1ccc(N/N=C/C=C/c2ccco2)cc1 99.1%
COc1cc(OC)cc(C(=O)Nc2cccc(-c3ccc(N4CCOCC4)nn3)c2)c1 101%
Nc1c(C(=O)Nc2ccccc2Cl)nnn1-c1ccc2c(c1)OCCO2 132%
Cc1sc(NC(=O)c2ccco2)nc1-c1ccccc1 96.4%
CC1CCC(NC(=O)CCNC(=O)c2ccc(Br)cc2)CC1 (stereo unspecified) 81.6%
Cc1sc2nc3c4ccccc4c(NCc4ccco4)nn3c(=O)c2c1C 85.2%
O=C(N=Nc1c(O)n(Cc2ccccc2)c2ccccc12)c1ccc(O)cc1 150%
CCN(CC)C(=O)OCc1c(-c2ccccc2)ncc2ccccc12 102%
O=C(Nc1nccs1)c1ccc(-c2ccc(F)cc2)o1 142%
